Measured values from the supplement of paper PMC10681739.
± gives the standard deviation of the averaged measurements. In all, about 4,000 sequences were measured (“arbitrary fluorescence units”: median about 830, highest 2% from about 6,500 on). The list lacks most of the strong results.

Biological target: RUNX1 (UniProt Q01196)
Test: RUNX1 binding intensity (PBM fluorescence), RUNX1 alone (arbitrary fluorescence units); higher = stronger binding
Details: RUNX1 concentration 2 nM; ETS1 concentration 0 nM
Experimental: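 gcPBM on 36-bp genomic-derived probes (partner site mutated) containing one RUNX1 site and no ETS1 site. Recombinant human RUNX1 (2 nM) was incubated alone or with ETS1 (25 nM) and detected by anti-RUNX1 antibody fluorescence. Values are medians over 4 replicate spots (not normalised). The probes sit in constant array flanks that are not printed.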
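Note: Full-length recombinant human RUNX1 bound to double-stranded DNA microarray spots, detected with an Alexa488-labelled secondary antibody after the anti-RUNX1 primary, read as scanned spot fluorescence.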

UniProt Q01196, sequence (Q01196 whole entry): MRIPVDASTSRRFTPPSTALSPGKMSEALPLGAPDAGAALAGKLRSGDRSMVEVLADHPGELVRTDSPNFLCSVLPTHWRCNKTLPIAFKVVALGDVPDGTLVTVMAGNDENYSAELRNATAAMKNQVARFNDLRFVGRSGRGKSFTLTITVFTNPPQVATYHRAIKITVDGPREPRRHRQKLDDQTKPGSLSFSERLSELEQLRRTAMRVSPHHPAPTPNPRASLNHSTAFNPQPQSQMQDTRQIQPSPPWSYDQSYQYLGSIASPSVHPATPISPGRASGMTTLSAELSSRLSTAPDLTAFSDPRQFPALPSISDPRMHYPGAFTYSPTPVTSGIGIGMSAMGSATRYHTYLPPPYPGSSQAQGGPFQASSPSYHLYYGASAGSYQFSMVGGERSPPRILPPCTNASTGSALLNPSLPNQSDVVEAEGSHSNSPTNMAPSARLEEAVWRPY

Sequence	RUNX1 binding intensity
AGGTCTCCGAAAGTGGGTCTGCGGCGCGCGGGATGC	653
GCGTGGGGCCGCAGAGCGAGTCGGGAGACGATTTTA	736
GACTTTTACGGAGATAGCAGTCCAAAACCGCGTCTA	867
AAGCTCCCTGGCCCTTTAAAAATGGCGGTTCCGCAC	825
CGAGCCGCAGTTTTACGCAGACACACTCCCGGCGCT	759
TGCATGCAACAGGCAGTGGGGTGTGGTTTGTTCTGG	806
GCCGTGAGAAACAACCTGCCTAACCACCTGACTACA	1030
CAGTCGCCAGAAACCACAGCACTTCGGCCTGCTTCA	1480
AAAGCAAACATGAAGTGCTGTGGTAACAAGGCCCCA	776
CGTCTCCTCGCGGGCCGGCGCACCGCGCGGTCACTT	1110
TTTTCTCTAAACCACATGAAAACAGGCAATGAGCCT	1350
CACTGATAACCACCTCTCTACACTGCTCGTCTTGAT	1500
CCTCCCGAACGGCGCGGGGGATTGTGGGGTGTAGGG	960
GACAACCCCATCATGCGCTCGCCCGCGGTGTCTCGG	780
GTGGCTCCCTGCCATTGACAATTGCGGGATGGCTTT	781
AGTGCGGTTTCTGGTGAGGGCCCTCTTGCTGGCTTG	2910
GAGAGGAGCGCGGTCACTGCTTCGTTCCACCCTCGC	836
CCGGTCGCTGAGTGGTTGAGGCCGTAAGACAACGCT	870
CTCGGCGAACCCGCGGGAGGCGGCACCATTGCACCG	820
AACCTCCGAGGGAACTAACTGGTTTTAACCACATTG	749
AGGGACGCAGCAAGTGACTGCGGGAGTGGAGCCGGC	673

Sequence	RUNX1 binding intensity
GGGGCGCACACTGCCGCAAAGCGGAGGTGTGGCGCT	721
TTCAACAGGGTGTGGGAACTTGACTCTCGCCGCAAA	936
AAGTGCAGACACCACACACCCCACAGGCAGTCAAGT	834
GAGGGAAGGGAACCCGCGCCGCCGGCAGGAGCCGCT	747
CGGTGCAATGGTGCCGCCTCCCGCGGGTTCGCCGAG	719
CTCCTCACCACACTGCTGCTGCCAGCAAGTGGGGGA	893
AGCCAGGCAATCCGCACCTACACAGCCCAACCACAG	1040
TGCAGCCTATCTCCTCTAACCCGCAGATCCACTATG	1270
AGCCAGCGCGGTGTGGTGGATCGTGATTCCAGCCCG	642
CTGAGCCACCGCAGCCAGTCTTTTATGCATTCGGCG	894
GGCGCGCGAGACCCGCAGACAGCGCAACTGGAGCCC	756
TGGGTACTTGCTGTGACAAATCGAGTTGACCACATG	727
CAGCTAGAGGAGGCGCTTCGCCCGCGAACCACAGGG	750
CGCCTGGTGTCCAGTCCCGGGGCCGCAGGGTCCGGC	682
CCATTGCCTGATTCTAATGTTCATCAACCACTTTTG	1320
ACTGTGTGTGGTGTTCCATAGAGGACACTGCAAAGC	787
GGCAAGCTGGTGGTTAAGATTCTCAGGCAGCAAGAC	835
AGCGGGGAGCAAGATCAGAAGAAAACCCCACAAGTT	890
GTGTTTTCATGGTGGCCCGGCCGTGCCTGAGGTTTC	955
CTTGTAGTCAGGTGGTTGGGCAGGGTGTTTCTCATG	807
GCCTGAAGCCACGCAGGGCCACGTCTGCGGTTCTGA	918

Sequence	RUNX1 binding intensity
GCCTTGTGGGCGCTCACTTGCCCCGAAAGTACTGTT	808
TAAGGCTGTGTGGCTTCCAGATCAAAAACCGCAAAA	8380
ATGTCATGAAGAGGCTCAGGGCTGTGGTTTCTCTGT	1030
GCATTTACGGGCACGAAATGAAACCACAGAGTACAA	1240
CTTGTGGCTCCTTTCCACCCGCCCCGTAAGCCGGCC	930
CGGGAGCGGCCGCAGTGACGACTCCCGGGATGCTCC	713
TGCTGCACCGCAGCCCCTTTCTCTTACGGTTCTAGG	1020
CATAGACCTGATGCCTCGTCAACCACAGAAACCAAT	1420
GCTCCCGTATGTTCTGGGGATCTGCGGCCGCCTGGC	752
TCTGCGGCCTCCTCCACCCCCACACCTCCTCTCTGC	1200
TTCCAAACCTCAACCTGCAGCCTGAATGGGGGAGTG	1000
TGCGCGGCCGCGGTCCGCCCTCTCTTCTGGAGGGCG	745 ± 24
AAGGTCGCGGTCTCGGCTTCCCTGGAACTTTTTGCT	929
GTTCAGCAGGCAGTGGATGTGGATGTGTGGTTGCCA	777
GTCACCGCGCTCCGCTGAATCCGCGTTGCCGGGATT	841
TTCCAGACCACAAGAGCTTCCACCTCCTTTCTCTTG	3320
CCTCAGCCTGAGTCTGAGAGCTGCAGCCCGCACAGA	745
GGCACAGGCCGCAGGGCTGAGCCTGAAGCTCCTGCC	685
TTGGTGACCTCTTCATGTCCGCTGTGGTGTTGTTAC	794
ACTACAACTGCCGACTTGCATCACTGCGGTGGCGCT	923
